# Where “and” joins values, the source holds several entries; their conditions need not be identical. Equal values may be shown once. The inconclusive results got no clear call from the source; some entries with a clear call stand among them for comparison. Where the call is inconclusive, the potency comes from a doubtful curve fit. Where a structure was tested more than once in an assay, its records may differ in their call. Calls of active or inactive are those of the source. Unless noted, calls follow the shape of the dose curve; as a rule, active = well fitted curve in the direction sought with a large enough effect in the repeat runs; inconclusive = weak or mixed curves; inactive = no such curve, though single readings can be large; an effect the other way counts as inactive or inconclusive.
# How the values were obtained:
# [1] = qHTS assay to identify small molecule agonists of H2AX - cell viability counter screen (AID 1224847; calls by dose curve; also: nearly all actives have a fitted effect of over 30% in size)
# How it was run: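 CHO-K1 wt, 1000 cells/well, o/n 37C; cpds 15 conc, 3 h 37C, 0.76% DMSO; CellTiter-Glo, 30 min RT, luminescence.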
# [2] = qHTS RealTime-Glo MT Cell Viability Assay in HEK293 cells - 16 hour (AID 1224872); also: nearly all actives have a fitted effect of over 50% in size
# How it was run: (§1)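 HEK293 cells were seeded at 600 cells/well together with NanoLuc luciferase and cell-permeant prosubstrate, preincubated 5 h at 37 C/5% CO2, then given compound in DMSO by pintool. Luminescence from viable-cell prosubstrate reduction was read repeatedly over 40 h.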
# [3] = A CellTox Green Cytotoxicity Assay to monitor cytotoxicity in HEK293 cells - 40 hour (AID 1224871); also: nearly all actives have a fitted effect of over 45% in size
# How it was run: (§2)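 Nonlytic real-time cytotoxicity: HEK293 + CellTox Green reagent plated, 5 h preincubation, pintool compound addition (23 nL in DMSO), 37 C for 40 h, fluorescence measured at successive time points.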
# [4] = A CellTox Green Cytotoxicity Assay to monitor cytotoxicity in HEK293 cells - 24 hour (AID 1224875); also: nearly all actives have a fitted effect of over 45% in size
# How it was run: as §2
# [5] = A CellTox Green Cytotoxicity Assay to monitor cytotoxicity in HEK293 cells - 32 hour (AID 1224881); also: nearly all actives have a fitted effect of over 40% in size
# How it was run: as §2
# [6] = qHTS RealTime-Glo MT Cell Viability Assay in HEK293 cells - 40 hour (AID 1224874); settings: RealTime-Glo luminescence; max response: stronger effect = lower value; also: nearly all actives have a fitted effect of over 50% in size; as to max response: % is scaled to controls: 0 for no effect and ±100 for the full control effect
# How it was run: (§3)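 Cells were seeded together with NanoLuc luciferase and a prosubstrate that viable cells reduce to a luciferase substrate. After a 5 h incubation at 37 C/5% CO2, compounds were added and luminescence was measured repeatedly during 40 h of treatment.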
# [7] = qHTS RealTime-Glo MT Cell Viability Assay in HEK293 cells - 32 hour (AID 1224868); also: nearly all actives have a fitted effect of over 50% in size
# How it was run: as §1
# [8] = A CellTox Green Cytotoxicity Assay to monitor cytotoxicity in HepG2 cells - 40 hour (AID 1224879); also: nearly all actives have a fitted effect of over 40% in size
# How it was run: (§4)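 Read-out is fluorescence of a cyanine dye excluded from live cells that stains DNA of dead HepG2 cells, with signal proportional to cytotoxicity. Plates were read at 0, 8, 16, 24, 32 and 40 h after compound addition.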
# [9] = A CellTox Green Cytotoxicity Assay to monitor cytotoxicity in HepG2 cells - 24 hour (AID 1224878); also: nearly all actives have a fitted effect of over 45% in size; as to Cytotoxicity: % is scaled to controls: 0 for no effect and ±100 for the full control effect
# How it was run: as §4
# [10] = qHTS RealTime-Glo MT Cell Viability Assay in HEK293 cells - 0 hour (AID 1224880); also: nearly all actives have a fitted effect of over 45% in size
# How it was run: as §3
# [11] = qHTS RealTime-Glo MT Cell Viability Assay in HepG2 cells - 40 hour (AID 1224870); also: nearly all actives have a fitted effect of over 50% in size
# How it was run: (§5)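 Real-time viability: cells seeded at 600 per well together with NanoLuc and cell-permeant prosubstrate, compounds added after 5 h incubation. Luminescence tracked at 0, 8, 16, 24, 32 and 40 h of exposure.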
# [12] = qHTS RealTime-Glo MT Cell Viability Assay in HepG2 cells - 8 hour (AID 1224873); also: nearly all actives have a fitted effect of over 55% in size
# How it was run: as §5
# [13] = A CellTox Green Cytotoxicity Assay to monitor cytotoxicity in HepG2 cells - 16 hour (AID 1224876); also: nearly all actives have a fitted effect of over 45% in size
# How it was run: as §4
# [14] = A CellTox Green Cytotoxicity Assay to monitor cytotoxicity in HepG2 cells - 0 hour (AID 1224882); also: nearly all actives have a fitted effect of over 35% in size
# How it was run: as §4
# Potency is read from the fitted curve at half-maximal effect; tags tell the direction and shape of the fitted curve.
smiles,measurement,setting,value
COc1cc(NCc2ccc3nc(N)nc(N)c3c2C)cc(OC)c1OC,Potency,[1],active: 0.22 µM
same,Potency,[2],"inconclusive: 0.756 µM [cytotoxic, full curve]"
O=C(c1ccc(O)cc1)c1ccc(Cl)cc1,Potency,[1],"inconclusive: 130 µM [cytotoxic, single point]"
same,Potency,[3],"inconclusive: 50 µM [activator, partial curve, poor fit]"
same,Potency,[2],active: 25.1 µM
same,Potency,[4],"inconclusive: 56.1 µM [activator, partial curve, poor fit]"
same,Potency,[5],"inconclusive: 50 µM [activator, partial curve, poor fit]"
Fc1ccccc1[C@@H](F)COC1CCC(Nc2ncnc3[nH]ncc23)CC1 (stereo not given in full),Potency,[1],active: 101 µM
same,Potency,[3],"inconclusive: 54.9 µM [activator, single point]"
same,Potency,[2],"inconclusive: 21.9 µM [cytotoxic, partial curve]"
same,Potency,[6],active: 24.5 µM
O=c1c(-c2ccc(O)cc2)coc2cc(O)ccc12,Potency,[1],inactive
same,Potency,[7],"inconclusive: 19.3 µM [cytotoxic, partial curve] and inconclusive: 21.9 µM [cytotoxic, partial curve]"
same,Potency,[2],"inconclusive: 34.7 µM [cytotoxic, partial curve]"
same,Potency,[6],"inconclusive: 19.3 µM [cytotoxic, partial curve] and inconclusive: 21.9 µM [cytotoxic, partial curve]"
same,Potency,[8],"inconclusive: 61 µM [activator, partial curve, poor fit]"
Nc1ccc2cc(S(=O)(=O)O)cc(O)c2c1N=Nc1ccccc1C(F)(F)F,Potency,[1],"inconclusive: 45 µM [cytotoxic, partial curve]"
same,Potency,[7],inactive
same,Potency,[9],inactive
CCOC(=O)C(C)Oc1ccc(Oc2cnc3cc(Cl)ccc3n2)cc1 (stereo not given),Potency,[1],"inconclusive: 116 µM [cytotoxic, single point] and inconclusive: 106 µM [cytotoxic, single point]"
same,Potency,[7],"active: 39.9 µM and inconclusive: 36.4 µM [cytotoxic, partial curve]"
same,Potency,[2],active: 20 µM and active: 20.5 µM
same,Potency,[6],active: 44.7 µM
O=Nc1ccc(O)cc1,Potency,[1],"inconclusive: 78.2 µM [cytotoxic, partial curve]"
same,Potency,[7],"inconclusive: 53.7 µM [cytotoxic, single point]"
same,Potency,[2],"inconclusive: 33.9 µM [cytotoxic, partial curve]"
same,Potency,[6],"inconclusive: 53.7 µM [cytotoxic, partial curve, poor fit]"
CN1CCCCC1CCN1c2ccccc2Sc2ccc(S(C)=O)cc21 (stereo not given),Potency,[1],"inconclusive: 61.9 µM [cytotoxic, single point]"
same,Potency,[7],"inconclusive: 23.9 µM [cytotoxic, partial curve, poor fit]"
same,Potency,[6],"inconclusive: 26.8 µM [cytotoxic, single point]"
same,Potency,[9],"inconclusive: 26.8 µM [activator, single point]"
same,Potency,[8],"inconclusive: 26.8 µM [activator, single point]"
same,Potency,[10],inactive
CC(C)COCC(CN(Cc1ccccc1)c1ccccc1)N1CCCC1 (stereo not given),Potency,[1],active: 43.8 µM
same,Potency,[11],active: 23.9 µM
same,Potency,[3],active: 21.3 µM
same,Potency,[2],active: 8.49 µM
same,Potency,[12],active: 23.9 µM
same,Potency,[4],active: 23.9 µM
same,Potency,[10],"inconclusive: 21.3 µM [rising, partial curve]"
CC(C)COC(=O)CC(C(=O)OCC(C)C)S(=O)(=O)O (stereo not given),Potency,[1],"inconclusive: 1.79 µM [cytotoxic, single point]"
same,Potency,[7],inactive
same,Potency,[4],inactive
same,Potency,[5],inactive
O=C(O)Cc1ccc(Cl)cc1Cl,Potency,[1],inactive
same,Potency,[11],"inconclusive: 24.5 µM [falling, single point]"
same,Potency,[12],"inconclusive: 21.9 µM [rising, single point]"
same,Potency,[13],"inconclusive: 24.5 µM [activator, single point]"
same,Potency,[9],"inconclusive: 21.9 µM [activator, single point]"
same,Potency,[8],"inconclusive: 21.9 µM [activator, single point]"
same,Potency,[14],"inconclusive: 21.9 µM [activator, single point]"
CC(C)(C)C1CCC(O)CC1 (stereo not given),Potency,[1],inactive
same,max response,[6],inactive: -21.7% and inactive: -6.15%
O=C1c2ccccc2C(=O)c2c(O)c(O)cc(O)c21,Potency,[1],"inconclusive: 50.5 µM [cytotoxic, partial curve]"
same,Potency,[4],inactive

# — PubChem BioAssay (Tox21)
